Measured values taken from the supplement of paper PMC8728848.
Some of the results follow.

What was measured:
Assay in all cases: glycan array binding signal (z-score within array); higher = stronger binding
Conditions in all cases: glycan notation: IUPAC condensed, linker removed
[1] = molecular target: Fuc(a1-2)Gal
How it was run: (§1)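 From the Consortium for Functional Glycomics database, 3228 arrays were curated, keeping only those whose protein sequence was available. Binding is given as a within-array Z-score averaged across arrays sharing a protein sequence and across linkers. Negative Z-scores can be read as non-binding.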

[2] = molecular target: Fuc(a1-2)Gal(b1-3)GalNAc
How it was run: as §1

[3] = molecular target: Fuc(a1-2)Gal(b1-3)GalNAc(a1-3)[Fuc(a1-2)]Gal(b1-4)Glc
How it was run: as §1

[4] = molecular target: Fuc(a1-2)Gal(b1-3)GalNAc(a1-3)[Fuc(a1-2)]Gal(b1-4)GlcNAc
How it was run: as §1

[5] = molecular target: Fuc(a1-2)Gal(b1-3)GalNAc(b1-3)Gal
How it was run: as §1

[6] = molecular target: Fuc(a1-2)Gal(b1-3)GalNAc(b1-3)Gal(a1-4)Gal(b1-4)Glc
How it was run: as §1

[7] = molecular target: Fuc(a1-2)Gal(b1-3)GalNAc(b1-4)[Neu5Ac(a2-3)]Gal(b1-4)Glc
How it was run: as §1

[8] = molecular target: Fuc(a1-2)Gal(b1-3)GlcNAc
How it was run: as §1

[9] = molecular target: Fuc(a1-2)Gal(b1-3)GlcNAc(b1-2)Man(a1-3)[Fuc(a1-2)Gal(b1-3)GlcNAc(b1-2)Man(a1-6)]Man(b1-4)GlcNAc(b1-4)GlcNAc
How it was run: as §1

[10] = molecular target: Fuc(a1-2)Gal(b1-3)GlcNAc(b1-2)Man(a1-3)[Fuc(a1-2)Gal(b1-3)GlcNAc(b1-2)Man(a1-6)]Man(b1-4)GlcNAc(b1-4)[Fuc(a1-6)]GlcNAc
How it was run: as §1

[11] = molecular target: Fuc(a1-2)Gal(b1-3)GlcNAc(b1-3)Gal(b1-4)Glc
How it was run: as §1

[12] = molecular target: Fuc(a1-2)Gal(b1-3)GlcNAc(b1-3)GalNAc
How it was run: as §1

[13] = molecular target: Fuc(a1-2)Gal(b1-3)GlcNAc(b1-3)[Fuc(a1-2)Gal(b1-3)GlcNAc(b1-6)]GalNAc
How it was run: as §1

[14] = molecular target: Fuc(a1-2)Gal(b1-3)GlcNAc(b1-3)[Gal(b1-4)GlcNAc(b1-6)]Gal(b1-4)Glc
How it was run: as §1

[15] = molecular target: Fuc(a1-2)Gal(b1-3)GlcNAc(b1-3)[Neu5Ac(a2-6)Gal(b1-4)GlcNAc(b1-6)]Gal(b1-4)Glc
How it was run: as §1

[16] = molecular target: Fuc(a1-2)Gal(b1-3)GlcNAc6S
How it was run: as §1

[17] = molecular target: Fuc(a1-2)Gal(b1-3)[Fuc(a1-4)]GlcNAc
How it was run: as §1

[18] = molecular target: Fuc(a1-2)Gal(b1-3)[Fuc(a1-4)]GlcNAc(b1-2)Man(a1-3)[Fuc(a1-2)Gal(b1-3)[Fuc(a1-4)]GlcNAc(b1-2)Man(a1-3)]Man(b1-4)GlcNAc(b1-4)GlcNAc
How it was run: as §1

[19] = molecular target: Fuc(a1-2)Gal(b1-3)[Fuc(a1-4)]GlcNAc(b1-2)Man(a1-3)[Fuc(a1-2)Gal(b1-3)[Fuc(a1-4)]GlcNAc(b1-2)Man(a1-6)]Man(b1-4)GlcNAc(b1-4)[Fuc(a1-6)]GlcNAc(b1-4)[Fuc(a1-6)]GlcNAc
How it was run: as §1

[20] = molecular target: Fuc(a1-2)Gal(b1-3)[Fuc(a1-4)]GlcNAc(b1-3)[Fuc(a1-3)[Gal(b1-4)]GlcNAc(b1-6)]Gal(b1-4)Glc
How it was run: as §1

[21] = molecular target: Fuc(a1-2)Gal(b1-3)[Fuc(a1-4)]GlcNAc(b1-3)[Gal(b1-4)GlcNAc(b1-6)]Gal(b1-4)Glc
How it was run: as §1

[22] = molecular target: Fuc(a1-2)Gal(b1-4)Glc
How it was run: as §1

[23] = molecular target: Fuc(a1-2)Gal(b1-4)Glc6S
How it was run: as §1

[24] = molecular target: Fuc(a1-2)Gal(b1-4)GlcNAc
How it was run: as §1

[25] = molecular target: Fuc(a1-2)Gal(b1-4)GlcNAc(b1-2)Man
How it was run: as §1

[26] = molecular target: Fuc(a1-2)Gal(b1-4)GlcNAc(b1-2)Man(a1-3)[Fuc(a1-2)Gal(b1-4)GlcNAc(b1-2)Man(a1-6)]Man(b1-4)GlcNAc(b1-4)GlcNAc
How it was run: as §1

[27] = molecular target: Fuc(a1-2)Gal(b1-4)GlcNAc(b1-2)Man(a1-3)[Fuc(a1-2)Gal(b1-4)GlcNAc(b1-2)Man(a1-6)]Man(b1-4)GlcNAc(b1-4)[Fuc(a1-6)]GlcNAc
How it was run: as §1

[28] = molecular target: Fuc(a1-2)Gal(b1-4)GlcNAc(b1-2)[Fuc(a1-2)Gal(b1-4)GlcNAc(b1-4)]Man(a1-3)[Fuc(a1-2)Gal(b1-4)GlcNAc(b1-2)Man(a1-6)]Man(b1-4)GlcNAc(b1-4)GlcNAc
How it was run: as §1

[29] = molecular target: Fuc(a1-2)Gal(b1-4)GlcNAc(b1-3)Gal(b1-4)GlcNAc
How it was run: as §1

[30] = molecular target: Fuc(a1-2)Gal(b1-4)GlcNAc(b1-3)Gal(b1-4)GlcNAc(b1-2)Man(a1-3)[Fuc(a1-2)Gal(b1-4)GlcNAc(b1-3)Gal(b1-4)GlcNAc(b1-2)Man(a1-6)]Man(b1-4)GlcNAc(b1-4)GlcNAc
How it was run: as §1

B1: rCnSL-proB (Clitocybe nebularis) (protein)
chain: PTFSPIFALLAFLPFGTLASLLPQTQLVFRINPNLPGPNDVFVGYRGTNNVVGAIYERDGIKDTPMNNGADAELGPGSYITDDLFTAQIFASGSAGNNPGTTATVCKIYADGVQWRGAPKGYLPVLYFGNGQAAEQTRQTYLQGLDIPGTAIRFANLAKTPNQGPTAPRQMVVPSGGLQTLLKASCFPANHAALPQVLSYFNVRAALPPGWNIRTGPEFPNWTN
Which results are given for B1?
glycan array binding signal (z-score) [1]: -0.11; glycan array binding signal (z-score) [2]: -0.292; glycan array binding signal (z-score) [3]: -0.1; glycan array binding signal (z-score) [4]: -0.402; glycan array binding signal (z-score) [5]: -0.69; glycan array binding signal (z-score) [6]: -0.192; glycan array binding signal (z-score) [7]: 0.074; glycan array binding signal (z-score) [8]: -0.603; glycan array binding signal (z-score) [9]: 0.589; glycan array binding signal (z-score) [10]: 1.83; glycan array binding signal (z-score) [11]: -0.144; glycan array binding signal (z-score) [12]: 0.037; glycan array binding signal (z-score) [13]: -0.645; glycan array binding signal (z-score) [14]: -0.201; glycan array binding signal (z-score) [15]: -0.541; glycan array binding signal (z-score) [16]: -0.282; glycan array binding signal (z-score) [17]: -0.508; glycan array binding signal (z-score) [18]: 3.69; glycan array binding signal (z-score) [19]: 0.19; glycan array binding signal (z-score) [20]: -0.291; glycan array binding signal (z-score) [21]: 0.806; glycan array binding signal (z-score) [22]: -0.444; glycan array binding signal (z-score) [23]: -0.528; glycan array binding signal (z-score) [24]: -0.503; glycan array binding signal (z-score) [25]: -0.05; glycan array binding signal (z-score) [26]: -0.08; glycan array binding signal (z-score) [27]: 2.04; glycan array binding signal (z-score) [28]: 0.484; glycan array binding signal (z-score) [29]: -0.806; glycan array binding signal (z-score) [30]: 0.475
